Data: PMC3744409
Read-outs that look alike come from different tables or passages of the source. These are yes or no findings as the source states them, for the method shown. Some entries that bind do so weakly or less than the wild type. For part of these data: Tags and fused reporters may be left off the sequences shown.

The chains behind the UniProt entries cited, without tags or fusion partners. Residues count along the entry.
UniProt P49238: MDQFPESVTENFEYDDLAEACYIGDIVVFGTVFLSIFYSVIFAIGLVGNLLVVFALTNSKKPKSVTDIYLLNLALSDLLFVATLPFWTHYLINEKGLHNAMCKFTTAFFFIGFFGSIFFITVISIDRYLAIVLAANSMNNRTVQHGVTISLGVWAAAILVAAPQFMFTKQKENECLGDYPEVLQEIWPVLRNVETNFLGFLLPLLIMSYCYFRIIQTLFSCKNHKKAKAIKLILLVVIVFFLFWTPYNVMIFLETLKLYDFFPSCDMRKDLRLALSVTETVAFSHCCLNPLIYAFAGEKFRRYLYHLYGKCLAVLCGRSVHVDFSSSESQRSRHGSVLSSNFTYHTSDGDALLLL
UniProt P51681: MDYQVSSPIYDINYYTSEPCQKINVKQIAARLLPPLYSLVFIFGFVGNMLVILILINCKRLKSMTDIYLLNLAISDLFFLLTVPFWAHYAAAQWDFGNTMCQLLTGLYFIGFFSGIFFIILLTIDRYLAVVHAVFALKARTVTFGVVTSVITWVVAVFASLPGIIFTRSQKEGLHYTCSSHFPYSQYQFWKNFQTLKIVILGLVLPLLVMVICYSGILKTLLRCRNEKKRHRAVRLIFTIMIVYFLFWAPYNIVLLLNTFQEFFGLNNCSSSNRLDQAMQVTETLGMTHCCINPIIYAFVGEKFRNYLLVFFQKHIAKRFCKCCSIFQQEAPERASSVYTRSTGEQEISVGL
UniProt P78423, residues 25-341: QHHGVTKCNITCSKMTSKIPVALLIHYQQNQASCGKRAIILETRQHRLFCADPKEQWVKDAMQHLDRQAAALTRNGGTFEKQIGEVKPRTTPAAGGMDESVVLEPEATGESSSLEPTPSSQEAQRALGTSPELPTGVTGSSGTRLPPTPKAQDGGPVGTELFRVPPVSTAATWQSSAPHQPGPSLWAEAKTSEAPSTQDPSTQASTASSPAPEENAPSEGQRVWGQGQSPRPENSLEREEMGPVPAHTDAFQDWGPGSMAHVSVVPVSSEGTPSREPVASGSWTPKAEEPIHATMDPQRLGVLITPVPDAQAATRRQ

T1: CXCR1 chemokine receptor on 293T-CXCR1 transfectants (human (cDNA from HL60 cells)) (UniProt P25024)
T1 sequence: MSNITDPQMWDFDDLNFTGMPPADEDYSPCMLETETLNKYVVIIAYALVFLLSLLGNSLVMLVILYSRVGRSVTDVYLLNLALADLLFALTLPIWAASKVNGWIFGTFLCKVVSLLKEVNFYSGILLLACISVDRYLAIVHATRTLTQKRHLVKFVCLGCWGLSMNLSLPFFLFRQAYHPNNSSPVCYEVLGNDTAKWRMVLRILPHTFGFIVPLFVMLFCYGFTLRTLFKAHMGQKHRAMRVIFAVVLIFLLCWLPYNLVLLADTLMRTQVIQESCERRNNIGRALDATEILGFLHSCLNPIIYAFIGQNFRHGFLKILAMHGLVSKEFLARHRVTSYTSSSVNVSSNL


Columns and labels:
Experiment in all cases: flow cytometry on cells; only the binder purified
[1] = target: CX3CR1 chemokine receptor on 293T-CX3CR1 transfectants (human (cDNA from NK cells of healthy donors)) (UniProt P49238)
[2] = target: CCR5 on U87-CCR5 transfected cells (UniProt P51681)
[3] = target: CX3CR1 chemokine receptor on 293T-CX3CR1 transfectants (human (cDNA from NK cells of healthy donors)) (UniProt P49238); remark: listed apart in the source
[4] = target: T1, CXCR1 chemokine receptor on 293T-CXCR1 transfectants (human (cDNA from HL60 cells))

Molecule | binding [1] | binding [2] | binding [3] | binding [4]
Fck-Ig (Fractalkine fused to human IgG) (from UniProt P78423) (Fc fusion) | binds | – | – | –
recombinant viral MIP-II (rvMIP-II) (ligand, UniProt Q98157 21-94) GDTLGASWHRPDKCCLGYQKRPLPQVLLSSWYPTSQLCSKPGVIFLTKRGRQVCADKSKDWVKKLMQQLPVTAR | – | binds | binds | –
vMIP-II-Ig (KSHV vMIP-II fused to the Fc of human IgG1) (Fc fusion, UniProt Q98157 21-94) GDTLGASWHRPDKCCLGYQKRPLPQVLLSSWYPTSQLCSKPGVIFLTKRGRQVCADKSKDWVKKLMQQLPVTAR | – | binds | binds | no binding
